The results in this text go back to article PMC9911399, “Two distinct binding modes provide the RNA-binding protein RbFox with extraordinary sequence specificity”.

Substitutions are numbered along the chain they refer to; changes in the protein carry UniProt numbers. The list shows a part of the results.

The chains are these.
T1: RBFOX1 RRM RbFoxmut (Fox-RRM*) (Homo sapiens, UniProt Q9NWB1 109-208, R118D;E147R;N151S;E152T)
T1 sequence: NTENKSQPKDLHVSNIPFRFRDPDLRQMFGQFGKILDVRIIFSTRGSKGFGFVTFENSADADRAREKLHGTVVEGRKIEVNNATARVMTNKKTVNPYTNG

B1: UCGGGAU (DNA:RNA)
RNA: GGGAGACCGGAAUUCAGAUUGUCCUCGGGAUUUAAAUCCCGUCGUAGCCACCA
DNA 1: CAATCTGAATTCCGGTCTCCC
DNA 2: TGGTGGCTACGACGGGATT
B2: CGAAACA (DNA:RNA)
RNA: GGGAGACCGGAAUUCAGAUUGUCCCGAAACAUUAAAUCCCGUCGUAGCCACCA
DNA 1: CAATCTGAATTCCGGTCTCCC
DNA 2: TGGTGGCTACGACGGGATT
B3: UCGAUGG (DNA:RNA)
RNA: B1 RNA with G28A, G29U, A30G, U31G
DNA 1: CAATCTGAATTCCGGTCTCCC
DNA 2: TGGTGGCTACGACGGGATT
B4: UUUUCAG (DNA:RNA)
RNA: B1 RNA with C26U, G27U, G28U, G29C, U31G
DNA 1: CAATCTGAATTCCGGTCTCCC
DNA 2: TGGTGGCTACGACGGGATT
B5: GUAACUA (DNA:RNA)
RNA: B2 RNA with C25G, G26U, A29C, C30U
DNA 1: CAATCTGAATTCCGGTCTCCC
DNA 2: TGGTGGCTACGACGGGATT
B6: CUGAUAA (DNA:RNA)
RNA: B2 RNA with G26U, A27G, A29U, C30A
DNA 1: CAATCTGAATTCCGGTCTCCC
DNA 2: TGGTGGCTACGACGGGATT
B7: CAGUUGA (DNA:RNA)
RNA: B2 RNA with G26A, A27G, A28U, A29U, C30G
DNA 1: CAATCTGAATTCCGGTCTCCC
DNA 2: TGGTGGCTACGACGGGATT
B8: CAGCUUU (DNA:RNA)
RNA: B1 RNA with U25C, C26A, G28C, G29U, A30U
DNA 1: CAATCTGAATTCCGGTCTCCC
DNA 2: TGGTGGCTACGACGGGATT
B9: CCUAUUC (DNA:RNA)
RNA: B2 RNA with G26C, A27U, A29U, C30U, A31C
DNA 1: CAATCTGAATTCCGGTCTCCC
DNA 2: TGGTGGCTACGACGGGATT
B10: CACCUGG (DNA:RNA)
RNA: B2 RNA with G26A, A27C, A28C, A29U, C30G, A31G
DNA 1: CAATCTGAATTCCGGTCTCCC
DNA 2: TGGTGGCTACGACGGGATT
B11: UAAAUAU (DNA:RNA)
RNA: B1 RNA with C26A, G27A, G28A, G29U
DNA 1: CAATCTGAATTCCGGTCTCCC
DNA 2: TGGTGGCTACGACGGGATT
B12: UGGUUGC (DNA:RNA)
RNA: B1 RNA with C26G, G28U, G29U, A30G, U31C
DNA 1: CAATCTGAATTCCGGTCTCCC
DNA 2: TGGTGGCTACGACGGGATT
B13: CCUCCGA (DNA:RNA)
RNA: B2 RNA with G26C, A27U, A28C, A29C, C30G
DNA 1: CAATCTGAATTCCGGTCTCCC
DNA 2: TGGTGGCTACGACGGGATT
B14: GAGGAUG (DNA:RNA)
RNA: B1 RNA with U25G, C26A, G29A, A30U, U31G
DNA 1: CAATCTGAATTCCGGTCTCCC
DNA 2: TGGTGGCTACGACGGGATT
B15: UAUGCAU (DNA:RNA)
RNA: B1 RNA with C26A, G27U, G29C
DNA 1: CAATCTGAATTCCGGTCTCCC
DNA 2: TGGTGGCTACGACGGGATT
B16: ACAACGA (DNA:RNA)
RNA: B2 RNA with C25A, G26C, A29C, C30G
DNA 1: CAATCTGAATTCCGGTCTCCC
DNA 2: TGGTGGCTACGACGGGATT
B17: UUUACUC (DNA:RNA)
RNA: B2 RNA with C25U, G26U, A27U, A29C, C30U, A31C
DNA 1: CAATCTGAATTCCGGTCTCCC
DNA 2: TGGTGGCTACGACGGGATT
B18: CCCAGUC (DNA:RNA)
RNA: B2 RNA with G26C, A27C, A29G, C30U, A31C
DNA 1: CAATCTGAATTCCGGTCTCCC
DNA 2: TGGTGGCTACGACGGGATT
B19: UAGGUUG (DNA:RNA)
RNA: B1 RNA with C26A, G29U, A30U, U31G
DNA 1: CAATCTGAATTCCGGTCTCCC
DNA 2: TGGTGGCTACGACGGGATT
B20: UCCGCGU (DNA:RNA)
RNA: B1 RNA with G27C, G29C, A30G
DNA 1: CAATCTGAATTCCGGTCTCCC
DNA 2: TGGTGGCTACGACGGGATT
B21: ACCUGCU (DNA:RNA)
RNA: B1 RNA with U25A, G27C, G28U, A30C
DNA 1: CAATCTGAATTCCGGTCTCCC
DNA 2: TGGTGGCTACGACGGGATT
B22: CCGGUAC (DNA:RNA)
RNA: B1 RNA with U25C, G29U, U31C
DNA 1: CAATCTGAATTCCGGTCTCCC
DNA 2: TGGTGGCTACGACGGGATT
B23: UAGCCAG (DNA:RNA)
RNA: B1 RNA with C26A, G28C, G29C, U31G
DNA 1: CAATCTGAATTCCGGTCTCCC
DNA 2: TGGTGGCTACGACGGGATT
B24: AUUAGAC (DNA:RNA)
RNA: B1 RNA with U25A, C26U, G27U, G28A, U31C
DNA 1: CAATCTGAATTCCGGTCTCCC
DNA 2: TGGTGGCTACGACGGGATT
B25: CAAUUGG (DNA:RNA)
RNA: B2 RNA with G26A, A28U, A29U, C30G, A31G
DNA 1: CAATCTGAATTCCGGTCTCCC
DNA 2: TGGTGGCTACGACGGGATT
B26: GAUACUU (DNA:RNA)
RNA: B2 RNA with C25G, G26A, A27U, A29C, C30U, A31U
DNA 1: CAATCTGAATTCCGGTCTCCC
DNA 2: TGGTGGCTACGACGGGATT
B27: UGAAUGA (DNA:RNA)
RNA: B2 RNA with C25U, A29U, C30G
DNA 1: CAATCTGAATTCCGGTCTCCC
DNA 2: TGGTGGCTACGACGGGATT
B28: UGCGAGA (DNA:RNA)
RNA: B2 RNA with C25U, A27C, A28G, C30G
DNA 1: CAATCTGAATTCCGGTCTCCC
DNA 2: TGGTGGCTACGACGGGATT
B29: CCACUAU (DNA:RNA)
RNA: B1 RNA with U25C, G27A, G28C, G29U
DNA 1: CAATCTGAATTCCGGTCTCCC
DNA 2: TGGTGGCTACGACGGGATT
B30: UGGGAUC (DNA:RNA)
RNA: B1 RNA with C26G, G29A, A30U, U31C
DNA 1: CAATCTGAATTCCGGTCTCCC
DNA 2: TGGTGGCTACGACGGGATT
B31: GCUCGGG (DNA:RNA)
RNA: B1 RNA with U25G, G27U, G28C, A30G, U31G
DNA 1: CAATCTGAATTCCGGTCTCCC
DNA 2: TGGTGGCTACGACGGGATT

The target of this assay is T1, RBFOX1 RRM RbFoxmut (Fox-RRM*). The experiment in a line: EMSA; HiTS-Eq, 1 nM pool, 10 min; buffer printed only for the single-RNA assays: 10 mM Tris pH 7.5, 150 mM NaCl, 3.4 mM EDTA, 0.001% NP-40, 30 C. The following applies: tags: His6 N-terminal (pET28a); label: 5' 32P. The essentials: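 Relative association constants, normalised to the cognate motif, were derived by comparing read counts of each RNA species with those of the control reaction. The RNA sequenced was the free fraction, separated by 8% native PAGE after a 10 min equilibration in 50 µL of 1 nM 5′-radiolabelled RNA (7 randomized nucleotides) with increasing concentrations of purified wild-type or mutant RbFox RRM.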
(A gel shift assay detects complexes by their altered migration in electrophoresis.)
Regarding B1, the binding signal was 0.0757 KA relative to UGCAUGU.

As for B2, the binding signal was 0.0759 KA relative to UGCAUGU.

Turning to B3, the binding signal is 0.0892 KA relative to UGCAUGU.

Regarding B4, the binding signal was 0.113 KA relative to UGCAUGU.

Turning to B5, the binding signal is 0.103 KA relative to UGCAUGU.

With B6, the binding signal is 0.0763 KA relative to UGCAUGU.

For B7, the binding signal was 0.107 KA relative to UGCAUGU.

Regarding B8, the binding signal is 0.116 KA relative to UGCAUGU.

In the case of B9, the binding signal is 0.0746 KA relative to UGCAUGU.

B10: the binding signal is 0.099 KA relative to UGCAUGU.

Take B11: the binding signal was 0.0636 KA relative to UGCAUGU.

On to B12, for which the binding signal was 0.252 KA relative to UGCAUGU.

Regarding B13, the binding signal was 0.0512 KA relative to UGCAUGU.

In the case of B14, the binding signal was 0.23 KA relative to UGCAUGU.

On to B15, for which the binding signal is 0.0878 KA relative to UGCAUGU.

For the molecule B16, the binding signal was 0.0863 KA relative to UGCAUGU.

For the molecule B17, the binding signal is 0.0584 KA relative to UGCAUGU.

As to B18, the binding signal is 0.0859 KA relative to UGCAUGU.

Take B19: the binding signal was 0.35 KA relative to UGCAUGU.

As to B20, the binding signal is 0.0928 KA relative to UGCAUGU.

Turning to B21, the binding signal was 0.072 KA relative to UGCAUGU.

As for B22, the binding signal is 0.0716 KA relative to UGCAUGU.

With B23, the binding signal was 0.0957 KA relative to UGCAUGU.

Regarding B24, the binding signal was 0.0913 KA relative to UGCAUGU.

As for B25, the binding signal is 0.0714 KA relative to UGCAUGU.

Regarding B26, the binding signal is 0.0808 KA relative to UGCAUGU.

B27: the binding signal was 0.46 KA relative to UGCAUGU.

B28: the binding signal is 0.0936 KA relative to UGCAUGU.

Consider B29, for which the binding signal is 0.09 KA relative to UGCAUGU.

On to B30, for which the binding signal is 0.357 KA relative to UGCAUGU.

B31: the binding signal is 0.0939 KA relative to UGCAUGU.
